# This is one part of the list. Values were computed here from the reads of four pooled replicates and scatter widely.
# Molecular target: T1, Pho4 (S. cerevisiae) (UniProt P07270)
# T1 sequence: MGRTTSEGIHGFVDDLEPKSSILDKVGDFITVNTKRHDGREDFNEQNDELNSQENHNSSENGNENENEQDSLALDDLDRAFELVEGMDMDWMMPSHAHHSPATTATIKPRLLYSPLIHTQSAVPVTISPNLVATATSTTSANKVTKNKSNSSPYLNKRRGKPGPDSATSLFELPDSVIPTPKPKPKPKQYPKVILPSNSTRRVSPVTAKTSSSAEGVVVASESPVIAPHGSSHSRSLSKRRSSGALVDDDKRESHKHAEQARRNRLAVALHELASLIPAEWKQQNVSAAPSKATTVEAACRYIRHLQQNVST
# Assay: relative binding free energy (BET-seq); higher = weaker binding
# Details: reference: library average
row,Sequence,relative binding free energy [kcal/mol]
1,GTTGTCACGTGTCCTG,0.06
2,CATAACACGTGTGGGG,0.03
3,CAGGTCACGTGTGTAT,0.3
4,TTTGTCACGTGATCTG,0.21
5,TAGTTCACGTGGTGAT,0.34
6,GTCGTCACGTGGGTGC,0.06
7,AGTGGCACGTGGCAGG,-0.1
8,TTTGCCACGTGTGTAC,0.04
9,AGTGTCACGTGAATGA,0.12
10,ATGGGCACGTGGTGGC,-0.11
11,TTGATCACGTGTAGGA,0.12
12,ATAGTCACGTGGATCG,0.1
13,TGAGACACGTGTGGGC,0.19
14,GAGTGCACGTGGTTCT,-0.02
15,TGTTTCACGTGAGGTA,0.41
16,GTAGTCACGTGGAAGG,0.1
17,TGGTACACGTGGAAAG,0.04
18,GTTAACACGTGATTTT,0.13
19,GCAGGCACGTGGCGTG,-0.26
20,AAGGTCACGTGGATGC,0.19
21,TTAGTCACGTGCAGGA,0.18

row,Sequence,relative binding free energy [kcal/mol]
1,ATGTGCACGTGGTTGT,-0.14
2,AGGTCCACGTGTATTT,-0.06
3,GGGGGCACGTGGGCAC,-0.25
4,TGTGTCACGTGCGGAA,0.11
5,GCGAGCACGTGGTGGT,-0.13
6,CAAGGCACGTGGTATT,-0.11
7,CTGTACACGTGTGTTG,0.11
8,AGTCGCACGTGTTTGT,-0.02
9,TTAAGCACGTGGACGG,-0.19
10,CAGGGCACGTGGTTAG,-0.13
11,CACTGCACGTGGGGGT,-0.25
12,AGTAGCACGTGTGCGG,-0.02
13,ATATGCACGTGTGCAT,0.05
14,TAATGCACGTGGATGT,0.04
15,GTGTGCACGTGAGGAC,0.26
16,GGTATCACGTGGCGTG,0.12
17,GCTATCACGTGTTGGT,0.24
18,ACGGTCACGTGCGGTT,0.11
19,ATGCGCACGTGGGCGG,-0.26
20,AGTGTCACGTGTAGAC,0.05
21,GTATTCACGTGGGAGA,0.14

row,Sequence,relative binding free energy [kcal/mol]
1,GTTCTCACGTGGTTAT,0.01
2,CCAGGCACGTGTGGTT,-0.02
3,TGGGACACGTGTAGCT,0.09
4,ATTCGCACGTGAGGTA,0.13
5,TTTGGCACGTGCTCAG,-0.28
6,TGTGGCACGTGCGTTG,-0.16
7,CGAAGCACGTGGAGTG,-0.16
8,ACGGTCACGTGTTTCG,0.19
9,GGGTTCACGTGAACGG,0.44
10,CAGGTCACGTGATGAT,0.42
11,TTGAGCACGTGAGTGT,0.08
12,GTATGCACGTGGCTGT,-0.06
13,AGTGACACGTGTCGTT,-0.05
14,ATGGGCACGTGATATT,-0.03
15,TTTGTCACGTGCTTGG,0.08
16,GTACTCACGTGGGGTA,0.01
17,TATAACACGTGTCAGT,0.09
18,TAGGGCACGTGTGTTG,0
19,TGTGGCACGTGTTGTA,-0.11
20,GGTTTCACGTGAGATC,0.49
21,TTTGACACGTGCGCTT,-0.05

# Reference: the BET-seq Pho4 binding data (Le et al. 2018)
